From PubChem BioAssay AID1508623 (National Center for Advancing Translational Sciences (NCATS), 2021) come the findings set out here.

About 450 (0.94%) of roughly 48,000 compounds were called active. Roughly 19% stayed inconclusive and do not appear here. Calls follow the shape of the dose curve; as a rule, active = well fitted inhibition curve with a large enough effect; inconclusive = small, poorly fitted or top-dose-only effect; inactive = no such curve, though single readings can be large or run the other way. This is one part of the list.

This test can be described thus: Primary qHTS for Identification of Small Molecule Inhibitors of Huntingtin Promoter Activity. Also: nearly all actives have a fitted effect of over 50% in size. The conditions noted are these: HEK293 HTT promoter firefly luciferase reporter (activity 0% = vehicle and -100% = no light), 24 h; series mostly up to 57.5 µM; activity change, negative = inhibition: at the top concentration. The gist of the method: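 Firefly luciferase readout (Dual-Glo, 10 min RT) after 24 h, 37 °C compound exposure (final up to 57.5 uM) of HEK293 reporter cells cultured 24 h beforehand; PTC124 at 50 uM final as control inhibitor; activity scaled vehicle 0%, zero RLU -100%.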
(Quantitative high-throughput screening tests each substance at several concentrations.)
For `COc1cc(OC)c(N(C)C(=O)Cn2ncc3c([nH]c4ccccc43)c2=O)cc1Cl`, the “activity change, negative = inhibition” value is inactive: -2.66%.
For `O=c1c2cc3c(cc2nc2sc(Nc4ccc(F)c(Cl)c4)nn12)OCO3`, the “activity change, negative = inhibition” value was inactive: -11.2%.
Consider `COc1cc(/C=C(\C#N)c2nc3ccccc3n2C)cc(OC)c1OC`, for which the “activity change, negative = inhibition” value was inactive: 42.1%.
The figure for `Cn1c(=O)c2c(-c3cccc(Br)c3)n(CCO)cc2n(C)c1=O` is inactive: -24.6%; for `CCN1CCN(c2oc(/C=C/c3ccccc3OC)nc2C#N)CC1` it is inactive: -4.4%.
For the compound `CCOC(=O)c1c(-c2ccc(C)cc2)csc1NC(=O)c1nc(SCC)ncc1Cl`, the “activity change, negative = inhibition” value is inactive: 11.9%.
Turning to `Cc1ccc(-n2c(=O)c3ccc(C(=O)NCc4ccccc4Cl)cc3n(Cc3ccccc3F)c2=O)cc1`, the “activity change, negative = inhibition” value was inactive: -11%.
Take `COc1cccc(NS(=O)(=O)c2ccc3[nH]cc(C(=O)N4CCCCCC4)c(=O)c3c2)c1`: the “activity change, negative = inhibition” value was inactive: -4.06%.
The figure for `CC1CCN(CCCNC(=O)c2cc(Sc3ccc(F)cc3)nc3ccccc23)CC1` is inactive: -19.8%.
The figure for `Nc1cccc(-c2cn3ccsc3n2)c1` is inactive: 74.3%; for `O=C(NC1CC(=O)N(c2cccc(F)c2)C1)C1CC1` (configuration not stated) it is inactive: -1.25%.
The figure for `Cc1ccc(NC(=O)c2oc3ccccc3c2NC(=O)c2ccccc2C)cc1` is inactive: -4.09%; for `COc1ccc(Cn2c(=O)c3cccnc3n(Cc3cccc(OC)c3)c2=O)cc1` it is inactive: -21.5%; for `CSc1nnc(NC(=O)Cc2coc3cc(C)ccc23)s1` it is inactive: 15.4%.
As to `CCCCC(CC)CNC(=O)c1ccc2c(=O)n(Cc3ccc(OC)cc3)c(=O)[nH]c2c1` (configuration not stated), the “activity change, negative = inhibition” value was inactive: -2.45%.
Take `Cn1nc(C(=O)NCc2ccc(Cl)cc2)c2c1-c1ccccc1SC2`: the “activity change, negative = inhibition” value is inactive: -15.1%.
Take `Cc1ccc(N(Cc2cccs2)C(=O)c2ccc(Br)o2)cc1`: the “activity change, negative = inhibition” value was inactive: -17.5%.
The figure for `Cc1cc(=O)n2nc(N3CCC(C(=O)Nc4ccc(C)c(Cl)c4)CC3)sc2n1` is inactive: -10.9%.
On to `Cc1c(C)c2c(c(C)c1O)CCC(C)(COc1ccc(CC3SC(=O)NC3=O)cc1)O2` (configuration not stated), for which the activity change, negative = inhibition result was “inactive”.
On to `COc1ccc(CNC(=O)Cc2c(C)c3c(cc(C)c4c(C)c(C)oc43)oc2=O)cc1`, for which the “activity change, negative = inhibition” value was inactive: -3.84%.
For the compound `CCSc1ncc(Cl)c(C(=O)Nc2nc3ccc(OC)cc3s2)n1`, the “activity change, negative = inhibition” value was inactive: 1.27%.
On to `CCc1nonc1NC(=O)c1oc2ccccc2c1C`, for which the “activity change, negative = inhibition” value was inactive: 16.6%.
Turning to `COc1ccc(CNC(=O)CCS(=O)(=O)c2ccc3c(c2)oc(=O)n3C)cc1`, the activity change, negative = inhibition was inactive: -9.85% [at 11.5 µM].
With `CCOC(=O)N1CCC(NC(=O)c2ccc3c(c2)N(Cc2ccc(F)cc2)C(=O)c2ccccc2S3(=O)=O)CC1`, the “activity change, negative = inhibition” value is inactive: -30.5%.
As for `Cc1ccc(CNC(=O)c2ccc3c(O)c(S(=O)(=O)c4ccccc4)c(=O)[nH]c3c2)cc1`, the “activity change, negative = inhibition” value is inactive: -0.887%.
In the case of `CCOc1ccc(NC(=O)C(NS(=O)(=O)c2ccc3c(c2)CCN3C(C)=O)C(C)C)cc1` (configuration not stated), the “activity change, negative = inhibition” value is inactive: -19.9%.
The figure for `CCCCC(CC)COC(=O)c1ccccc1C(=O)O` (configuration not stated) is inactive: -1.93% [at 116 µM].
